Here are results for 31 molecules from article PMC9911399, “Two distinct binding modes provide the RNA-binding protein RbFox with extraordinary sequence specificity”.

The chains are these.
T1: RBFOX1 RRM RbFoxmut (Fox-RRM*) (Homo sapiens, UniProt Q9NWB1 109-208, R118D;E147R;N151S;E152T)
T1 sequence: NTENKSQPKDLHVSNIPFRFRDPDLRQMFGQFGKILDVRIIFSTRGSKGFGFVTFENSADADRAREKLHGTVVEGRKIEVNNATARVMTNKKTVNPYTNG

B1: CAAACAC (DNA:RNA)
RNA: GGGAGACCGGAAUUCAGAUUGUCCCAAACACUUAAAUCCCGUCGUAGCCACCA
DNA 1: CAATCTGAATTCCGGTCTCCC
DNA 2: TGGTGGCTACGACGGGATT
B2: UAUUCCA (DNA:RNA)
RNA: B1 RNA with C25U, A27U, A28U, A30C, C31A
DNA 1: CAATCTGAATTCCGGTCTCCC
DNA 2: TGGTGGCTACGACGGGATT
B3: GCGCGUA (DNA:RNA)
RNA: GGGAGACCGGAAUUCAGAUUGUCCGCGCGUAUUAAAUCCCGUCGUAGCCACCA
DNA 1: CAATCTGAATTCCGGTCTCCC
DNA 2: TGGTGGCTACGACGGGATT
B4: CCCUAGU (DNA:RNA)
RNA: B1 RNA with A26C, A27C, A28U, C29A, A30G, C31U
DNA 1: CAATCTGAATTCCGGTCTCCC
DNA 2: TGGTGGCTACGACGGGATT
B5: GCCCAUA (DNA:RNA)
RNA: B3 RNA with G27C, G29A
DNA 1: CAATCTGAATTCCGGTCTCCC
DNA 2: TGGTGGCTACGACGGGATT
B6: CCAACCA (DNA:RNA)
RNA: B1 RNA with A26C, A30C, C31A
DNA 1: CAATCTGAATTCCGGTCTCCC
DNA 2: TGGTGGCTACGACGGGATT
B7: CUACCCG (DNA:RNA)
RNA: B1 RNA with A26U, A28C, A30C, C31G
DNA 1: CAATCTGAATTCCGGTCTCCC
DNA 2: TGGTGGCTACGACGGGATT
B8: UAGUCGG (DNA:RNA)
RNA: B1 RNA with C25U, A27G, A28U, A30G, C31G
DNA 1: CAATCTGAATTCCGGTCTCCC
DNA 2: TGGTGGCTACGACGGGATT
B9: AGCCCAU (DNA:RNA)
RNA: B1 RNA with C25A, A26G, A27C, A28C, C31U
DNA 1: CAATCTGAATTCCGGTCTCCC
DNA 2: TGGTGGCTACGACGGGATT
B10: UUGUGGA (DNA:RNA)
RNA: B3 RNA with G25U, C26U, C28U, U30G
DNA 1: CAATCTGAATTCCGGTCTCCC
DNA 2: TGGTGGCTACGACGGGATT
B11: UCAAGUA (DNA:RNA)
RNA: B3 RNA with G25U, G27A, C28A
DNA 1: CAATCTGAATTCCGGTCTCCC
DNA 2: TGGTGGCTACGACGGGATT
B12: GUCUGGA (DNA:RNA)
RNA: B3 RNA with C26U, G27C, C28U, U30G
DNA 1: CAATCTGAATTCCGGTCTCCC
DNA 2: TGGTGGCTACGACGGGATT
B13: CCAACAC (DNA:RNA)
RNA: B1 RNA with A26C
DNA 1: CAATCTGAATTCCGGTCTCCC
DNA 2: TGGTGGCTACGACGGGATT
B14: CUUGGAG (DNA:RNA)
RNA: B1 RNA with A26U, A27U, A28G, C29G, C31G
DNA 1: CAATCTGAATTCCGGTCTCCC
DNA 2: TGGTGGCTACGACGGGATT
B15: GCAGGUU (DNA:RNA)
RNA: B3 RNA with G27A, C28G, A31U
DNA 1: CAATCTGAATTCCGGTCTCCC
DNA 2: TGGTGGCTACGACGGGATT
B16: CUAUGCC (DNA:RNA)
RNA: B1 RNA with A26U, A28U, C29G, A30C
DNA 1: CAATCTGAATTCCGGTCTCCC
DNA 2: TGGTGGCTACGACGGGATT
B17: ACUAGCC (DNA:RNA)
RNA: B1 RNA with C25A, A26C, A27U, C29G, A30C
DNA 1: CAATCTGAATTCCGGTCTCCC
DNA 2: TGGTGGCTACGACGGGATT
B18: ACUUUUA (DNA:RNA)
RNA: B3 RNA with G25A, G27U, C28U, G29U
DNA 1: CAATCTGAATTCCGGTCTCCC
DNA 2: TGGTGGCTACGACGGGATT
B19: GGUGGAU (DNA:RNA)
RNA: B3 RNA with C26G, G27U, C28G, U30A, A31U
DNA 1: CAATCTGAATTCCGGTCTCCC
DNA 2: TGGTGGCTACGACGGGATT
B20: CACGAUC (DNA:RNA)
RNA: B1 RNA with A27C, A28G, C29A, A30U
DNA 1: CAATCTGAATTCCGGTCTCCC
DNA 2: TGGTGGCTACGACGGGATT
B21: CGACGUC (DNA:RNA)
RNA: B1 RNA with A26G, A28C, C29G, A30U
DNA 1: CAATCTGAATTCCGGTCTCCC
DNA 2: TGGTGGCTACGACGGGATT
B22: CUGUUGU (DNA:RNA)
RNA: B1 RNA with A26U, A27G, A28U, C29U, A30G, C31U
DNA 1: CAATCTGAATTCCGGTCTCCC
DNA 2: TGGTGGCTACGACGGGATT
B23: UCCCUGC (DNA:RNA)
RNA: B3 RNA with G25U, G27C, G29U, U30G, A31C
DNA 1: CAATCTGAATTCCGGTCTCCC
DNA 2: TGGTGGCTACGACGGGATT
B24: AACAAAC (DNA:RNA)
RNA: B1 RNA with C25A, A27C, C29A
DNA 1: CAATCTGAATTCCGGTCTCCC
DNA 2: TGGTGGCTACGACGGGATT
B25: UCCGGCC (DNA:RNA)
RNA: B3 RNA with G25U, G27C, C28G, U30C, A31C
DNA 1: CAATCTGAATTCCGGTCTCCC
DNA 2: TGGTGGCTACGACGGGATT
B26: AGCUGCC (DNA:RNA)
RNA: B1 RNA with C25A, A26G, A27C, A28U, C29G, A30C
DNA 1: CAATCTGAATTCCGGTCTCCC
DNA 2: TGGTGGCTACGACGGGATT
B27: GCGUAAC (DNA:RNA)
RNA: B3 RNA with C28U, G29A, U30A, A31C
DNA 1: CAATCTGAATTCCGGTCTCCC
DNA 2: TGGTGGCTACGACGGGATT
B28: AUGAGUA (DNA:RNA)
RNA: B3 RNA with G25A, C26U, C28A
DNA 1: CAATCTGAATTCCGGTCTCCC
DNA 2: TGGTGGCTACGACGGGATT
B29: GUACUCG (DNA:RNA)
RNA: B3 RNA with C26U, G27A, G29U, U30C, A31G
DNA 1: CAATCTGAATTCCGGTCTCCC
DNA 2: TGGTGGCTACGACGGGATT
B30: CAGCCCC (DNA:RNA)
RNA: B1 RNA with A27G, A28C, A30C
DNA 1: CAATCTGAATTCCGGTCTCCC
DNA 2: TGGTGGCTACGACGGGATT
B31: ACGACUA (DNA:RNA)
RNA: B3 RNA with G25A, C28A, G29C
DNA 1: CAATCTGAATTCCGGTCTCCC
DNA 2: TGGTGGCTACGACGGGATT

Where a chain is given by its changes, count along the chain named. The list shows a part of the results.

The target of the test is T1, RBFOX1 RRM RbFoxmut (Fox-RRM*). The experiment in a line: EMSA; HiTS-Eq, 1 nM pool, 10 min; buffer printed only for the single-RNA assays: 10 mM Tris pH 7.5, 150 mM NaCl, 3.4 mM EDTA, 0.001% NP-40, 30 C. The conditions noted are these: tags: His6 N-terminal (pET28a); label: 5' 32P. The essentials: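 Purified wild-type or mutant RbFox RRM at increasing concentrations was equilibrated with 1 nM of 5′-radiolabelled RNA carrying 7 randomized nucleotides for 10 min in 50 µL. Unbound RNA was separated by 8% native PAGE and sequenced. Relative association constants came from read-count changes of each RNA species compared with the control reaction, normalised to the cognate motif.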
On the technique in general: In EMSA bound probe runs differently from free probe, usually more slowly.
With B1, the binding signal is 0.0768 KA relative to UGCAUGU.
For B2 the value was 0.0725 KA relative to UGCAUGU; for B3, 0.126 KA relative to UGCAUGU.
With B4, the binding signal was 0.0914 KA relative to UGCAUGU.
For B5 the value was 0.0938 KA relative to UGCAUGU.
To B6 belongs 0.0995 KA relative to UGCAUGU.
To B7 belongs 0.0609 KA relative to UGCAUGU; to B8, 0.101 KA relative to UGCAUGU; to B9, 0.0645 KA relative to UGCAUGU.
B10: the binding signal was 0.0632 KA relative to UGCAUGU.
For B11, the binding signal is 0.141 KA relative to UGCAUGU.
To B12 belongs 0.0774 KA relative to UGCAUGU.
As for B13, the binding signal was 0.0711 KA relative to UGCAUGU.
Turning to B14, the binding signal was 0.11 KA relative to UGCAUGU.
To B15 belongs 0.0992 KA relative to UGCAUGU; to B16, 0.26 KA relative to UGCAUGU.
For B17 the value was 0.105 KA relative to UGCAUGU; for B18, 0.139 KA relative to UGCAUGU; for B19, 0.0712 KA relative to UGCAUGU.
B20: the binding signal is 0.0636 KA relative to UGCAUGU.
To B21 belongs 0.0705 KA relative to UGCAUGU; to B22, 0.166 KA relative to UGCAUGU.
To B23 belongs 0.127 KA relative to UGCAUGU; to B24, 0.0356 KA relative to UGCAUGU; to B25, 0.109 KA relative to UGCAUGU.
For B26 the value was 0.202 KA relative to UGCAUGU; for B27, 0.0833 KA relative to UGCAUGU; for B28, 0.184 KA relative to UGCAUGU.
For the molecule B29, the binding signal is 0.0853 KA relative to UGCAUGU.
Consider B30, for which the binding signal was 0.0727 KA relative to UGCAUGU.
For B31 the value was 0.0834 KA relative to UGCAUGU.
